Measured values as given in the supplement of paper PMC4967469.
By IC50 is meant the dose at which the fit gives 50% viability; a limit (>, <) means that the fit lies beyond the doses tested. The AUC spans the tested range (256-fold, ending at the top dose) of the same fit; the more sensitive the line, the further below 1. A top dose marked as inferred was derived from the fitted curves, not read from the paper.

Assays:
Test in all cases: Viability of human cancer cell lines after 72 h of drug (GDSC screen)
[1] = compound: O=C1/C(=C/c2cccs2)CC/C1=C\c1cccs1 [CCT007093]; conditions: top dose 6.6 µM; top dose inferred
Experimental: (§1)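 Human cancer cell lines in 384-well plates, medium with 10% serum, drug for 72 h over a 256-fold dose range (nine 2-fold or five 4-fold steps up to the top dose). Adherent lines were fixed and stained with the nucleic acid dye Syto60, suspension lines read with resazurin; signal relative to control wells, capped at 0 and 100%. One two-parameter sigmoid per drug and line, fitted in a mixed model over all curves with the slope shared within a line.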

[2] = compound: C=CC(=O)N1CCc2ccc(-n3c(=O)ccc4cnc5ccc(-c6cnn(C)c6)cc5c43)cc21 [QL-XII-47]; conditions: top dose 10.24 µM; top dose inferred
Experimental: as §1

[3] = compound: CCN1CCC(n2cc(CNc3cc(Cl)c4ncc(C#N)c(Nc5ccc(F)c(Cl)c5)c4c3)nn2)CC1 [KIN001-266]; conditions: top dose 20 µM; top dose inferred
Experimental: as §1

SNU-C5 (large intestine, adherent)
AUC [1]: 0.986 | IC50 [1]: > 6.6 µM | AUC [2]: 0.87 | IC50 [2]: > 10.2 µM | AUC [3]: 0.95 | IC50 [3]: > 20 µM

NCI-H1105 (small cell lung carcinoma, suspension)
AUC [1]: 0.993 | IC50 [1]: > 6.6 µM

OCUM-1 (stomach, adherent)
AUC [1]: 0.987 | IC50 [1]: > 6.6 µM | AUC [2]: 0.979 | IC50 [2]: > 10.2 µM | AUC [3]: 0.975 | IC50 [3]: > 20 µM

CML-T1 (chronic myeloid leukaemia, suspension)
AUC [1]: 0.984 | IC50 [1]: > 6.6 µM

MEL-HO (melanoma, adherent)
AUC [1]: 0.983 | IC50 [1]: > 6.6 µM

RCC-MF (kidney, adherent)
AUC [1]: 0.939 | IC50 [1]: > 6.6 µM | AUC [2]: 0.524 | IC50 [2]: 0.757 µM | AUC [3]: 0.744 | IC50 [3]: 7.87 µM

NCI-H630 (large intestine, adherent)
AUC [1]: 0.984 | IC50 [1]: > 6.6 µM | AUC [2]: 0.845 | IC50 [2]: 8.24 µM | AUC [3]: 0.863 | IC50 [3]: 19.5 µM

D-336MG (glioma, adherent)
AUC [1]: 0.955 | IC50 [1]: > 6.6 µM | AUC [2]: 0.588 | IC50 [2]: 1.2 µM | AUC [3]: 0.882 | IC50 [3]: > 20 µM

JHOS-3 (ovary, adherent)
AUC [1]: 0.98 | IC50 [1]: > 6.6 µM | AUC [2]: 0.814 | IC50 [2]: 7.6 µM | AUC [3]: 0.917 | IC50 [3]: > 20 µM

SK-GT-2 (stomach, adherent)
AUC [1]: 0.978 | IC50 [1]: > 6.6 µM

SNU-81 (large intestine, adherent)
AUC [1]: 0.979 | IC50 [1]: > 6.6 µM | AUC [2]: 0.834 | IC50 [2]: 10.2 µM | AUC [3]: 0.957 | IC50 [3]: > 20 µM

OCI-LY7 (B-cell lymphoma, suspension)
AUC [1]: 0.997 | IC50 [1]: > 6.6 µM

CL-40 (large intestine, adherent)
AUC [1]: 0.969 | IC50 [1]: > 6.6 µM

SNU-175 (large intestine, suspension)
AUC [2]: 0.775 | IC50 [2]: 3.8 µM | AUC [3]: 0.871 | IC50 [3]: 16.9 µM

KNS-62 (lung squamous cell carcinoma, adherent)
AUC [1]: 0.95 | IC50 [1]: > 6.6 µM

RCC-JW (kidney, adherent)
AUC [1]: 0.983 | IC50 [1]: > 6.6 µM | AUC [2]: 0.519 | IC50 [2]: 0.72 µM | AUC [3]: 0.859 | IC50 [3]: 17.3 µM

A549 (lung adenocarcinoma, adherent)
AUC [1]: 0.979 | IC50 [1]: > 6.6 µM

OVCA433 (ovary, adherent)
AUC [1]: 0.968 | IC50 [1]: > 6.6 µM | AUC [2]: 0.771 | IC50 [2]: 4.38 µM | AUC [3]: 0.87 | IC50 [3]: > 20 µM

EMC-BAC-2 (lung adenocarcinoma, adherent)
AUC [1]: 0.978 | IC50 [1]: > 6.6 µM | AUC [2]: 0.711 | IC50 [2]: 2.87 µM | AUC [3]: 0.872 | IC50 [3]: > 20 µM

OVCA420 (ovary, adherent)
AUC [1]: 0.976 | IC50 [1]: > 6.6 µM | AUC [2]: 0.953 | IC50 [2]: > 10.2 µM | AUC [3]: 0.9 | IC50 [3]: > 20 µM

H2810 (mesothelioma, adherent)
AUC [1]: 0.981 | IC50 [1]: > 6.6 µM

YMB-1-E (breast, adherent)
AUC [2]: 0.859 | IC50 [2]: > 10.2 µM | AUC [3]: 0.891 | IC50 [3]: > 20 µM

SU-DHL-10 (B-cell lymphoma, suspension)
AUC [1]: 0.997 | IC50 [1]: > 6.6 µM | AUC [2]: 0.474 | IC50 [2]: 0.554 µM | AUC [3]: 0.92 | IC50 [3]: 14.3 µM

RCH-ACV (B-cell leukaemia, suspension)
AUC [1]: 0.989 | IC50 [1]: > 6.6 µM

NCI-N87 (stomach, adherent)
AUC [1]: 0.935 | IC50 [1]: > 6.6 µM

ESO51 (oesophagus, semi-adherent)
AUC [1]: 0.855 | IC50 [1]: > 6.6 µM | AUC [2]: 0.612 | IC50 [2]: 1.47 µM | AUC [3]: 0.884 | IC50 [3]: > 20 µM

JHOS-2 (ovary, adherent)
AUC [1]: 0.977 | IC50 [1]: > 6.6 µM | AUC [2]: 0.751 | IC50 [2]: 3.87 µM | AUC [3]: 0.66 | IC50 [3]: 3.76 µM

NCI-H929 (myeloma, suspension)
AUC [1]: 0.966 | IC50 [1]: > 6.6 µM

SK-MG-1 (glioma, adherent)
AUC [1]: 0.986 | IC50 [1]: > 6.6 µM | AUC [2]: 0.931 | IC50 [2]: > 10.2 µM | AUC [3]: 0.882 | IC50 [3]: > 20 µM

OACp4C (oesophagus, adherent)
AUC [1]: 0.979 | IC50 [1]: > 6.6 µM | AUC [2]: 0.59 | IC50 [2]: 1.18 µM | AUC [3]: 0.705 | IC50 [3]: 5.35 µM

Jurkat (T-cell leukaemia, suspension)
AUC [1]: 0.991 | IC50 [1]: > 6.6 µM

NCC021 (kidney, adherent)
AUC [1]: 0.985 | IC50 [1]: > 6.6 µM | AUC [2]: 0.845 | IC50 [2]: 9.26 µM | AUC [3]: 0.866 | IC50 [3]: > 20 µM

TC-YIK (cervix, suspension)
AUC [1]: 0.979 | IC50 [1]: > 6.6 µM

GA-10 (Burkitt lymphoma, suspension)
AUC [1]: 0.991 | IC50 [1]: > 6.6 µM

OACM5-1 (oesophagus, semi-adherent)
AUC [1]: 0.984 | IC50 [1]: > 6.6 µM | AUC [2]: 0.42 | IC50 [2]: 0.377 µM | AUC [3]: 0.754 | IC50 [3]: 7.53 µM

CHP-134 (neuroblastoma, suspension)
AUC [2]: 0.727 | IC50 [2]: 3.43 µM | AUC [3]: 0.761 | IC50 [3]: 8.94 µM

HCC-366 (non-small cell lung carcinoma, adherent)
AUC [1]: 0.988 | IC50 [1]: > 6.6 µM

D-247MG (glioma, adherent)
AUC [1]: 0.887 | IC50 [1]: > 6.6 µM | AUC [2]: 0.968 | IC50 [2]: > 10.2 µM | AUC [3]: 0.847 | IC50 [3]: > 20 µM
